Out of some 230,000 compounds screened, about 3,600 (1.6%) were called active. Inconclusive results, whose numbers are uncertain, are shown with a selection of clear calls. Calls follow the shape of the dose curve; as a rule, active = well fitted inhibition curve with a large enough effect (not every such curve was filed as active); inconclusive = small, poorly fitted or top-dose-only effect, or another doubt; inactive = no such curve, though single readings can be large or run the other way. Potencies of inconclusive entries are doubtful fits and often do not repeat.
Target: Lysine-specific demethylase 4E (Homo sapiens) (UniProt B2RXH2)
Assay: qHTS Assay for Inhibitors of Human Jumonji Domain Containing 2E (JMJD2E)
Settings: JMJD2E catalytic domain, FDH-coupled NADH fluorescence (FDH is formaldehyde dehydrogenase); series mostly up to 57.1 µM
Also: nearly all actives have a fitted effect of over 50% in size.
Potency is read from the fitted curve at half-maximal effect; tags tell the direction and shape of the fitted curve.

UniProt B2RXH2, sequence (B2RXH2 whole entry, looked up, the tested form may be a part): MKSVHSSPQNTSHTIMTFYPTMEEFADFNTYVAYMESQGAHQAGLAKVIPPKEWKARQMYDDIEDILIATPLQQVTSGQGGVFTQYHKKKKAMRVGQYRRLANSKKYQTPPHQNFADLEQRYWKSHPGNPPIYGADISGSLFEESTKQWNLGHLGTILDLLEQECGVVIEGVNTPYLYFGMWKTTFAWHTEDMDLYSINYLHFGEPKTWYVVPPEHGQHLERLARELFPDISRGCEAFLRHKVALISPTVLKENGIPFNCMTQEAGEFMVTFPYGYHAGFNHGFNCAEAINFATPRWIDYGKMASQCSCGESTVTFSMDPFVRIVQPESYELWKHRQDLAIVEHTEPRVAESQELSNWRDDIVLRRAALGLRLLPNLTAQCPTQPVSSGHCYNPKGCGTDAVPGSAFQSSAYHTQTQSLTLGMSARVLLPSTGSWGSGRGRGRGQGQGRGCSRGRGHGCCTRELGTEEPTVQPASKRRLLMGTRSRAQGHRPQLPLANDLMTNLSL

| SMILES | Potency |
| --- | --- |
| CC1(c2ccccc2)CC(c2ccccc2)=Nc2ccccc2N1 (configuration not stated) | inconclusive: 39.8 µM [inhibitor, single point] |
| O=c1c(C/C=C/c2ccccc2)c(O)ccn1Cc1cccc(Cl)c1 | inactive |
| CCCc1cc(C(=O)Nc2sc(C)c(C)c2C(=O)OCC)no1 | inconclusive: 4.47 µM [inhibitor, single point] |
| O=C(C[n+]1cccc(CO)c1)Nc1nc2ccccc2s1 | active: 10 µM |
| Nc1ccc2ncccc2c1 | inconclusive: 1.58 µM [inhibitor, partial curve] |
| NC(=O)c1ccccc1N=Cc1ccc2ccccc2c1 | inconclusive: 14.1 µM [inhibitor, partial curve] |
| Cn1c(SCc2nc(-c3ccc(Cl)cc3)no2)nnc1-c1cccs1 | inactive |
| CCCC(=Nc1ccc(N)cc1)C1=C(O)C(C(=O)OC)C(C)(C)CC1=O (configuration not stated) | inconclusive: 2.51 µM [inhibitor, full curve] |
| Cc1nnc(N/N=C/c2c(O)n(-c3cccc(C(F)(F)F)c3)c(=O)c3ccccc23)[nH]c1=O | inconclusive: 35.5 µM [inhibitor, single point] |
| COc1cc(C(=O)NCC2CCCO2)cc(OC)c1OC (configuration not stated) | inactive |
| COC(=O)c1ccccc1S(=O)(=O)N(CCCO)Cc1cc2c(C)ccc(C)c2[nH]c1=O | inconclusive: 14.1 µM [inhibitor, single point] |
| O=C(O)C1CSC2c3ccccc3C(=O)N12 (configuration not stated) | inactive |
| CC(C)(C)OC(=O)C1=NOC2(C=CC(=O)C=C2)C1 | inactive |
| COc1cc2cc(C#N)c(SCC(=O)N3CCOCC3)nc2cc1OC | inconclusive: 35.5 µM [inhibitor, single point] |
| CC(C)=CCCC1(C)C=Cc2c(c(C)cc3c2[nH]c2ccccc23)O1 (configuration not stated) | inactive |
| Nc1cccnc1Sc1cc(Cl)c(Cl)cc1Cl | inconclusive: 7.94 µM [inhibitor, full curve] |
| Cn1c(=O)n(C/C=C/c2ccccc2)c(=O)c2c1nc1n2CCCN1c1ccc(F)cc1 | inconclusive: 35.5 µM [inhibitor, single point] |
| Cc1ccc2[nH]c(=O)c(CNC(C)(C)C)cc2c1 | inconclusive: 28.2 µM [inhibitor, partial curve] |
| Cc1ccc2[nH]c(=O)c(C(c3nnnn3CC3CCCO3)N3CCc4ccccc4C3)cc2c1 (configuration not stated) | inconclusive: 25.1 µM [inhibitor, partial curve] |
| N#Cc1c(F)cccc1N1CCOCC1 | inconclusive: 28.2 µM [inhibitor, partial curve] |
| CCOC(=O)Nc1ccc2c(COC(=O)CNS(=O)(=O)c3cccc(Br)c3)cc(=O)oc2c1 | inconclusive: 14.1 µM [inhibitor, partial curve] |
| O=c1[nH][nH]cc1C=Nc1ccccc1O | active: 25.1 µM |
| Cc1onc(-c2c(Cl)cccc2Cl)c1C(=O)c1c[nH]c(C(=O)NCC2CCCO2)c1 (configuration not stated) | inactive |
| CS(=O)(=O)Nc1ccccc1C(=O)N1CCN(c2ccccc2)CC1 | inactive |

| SMILES | Potency |
| --- | --- |
| CCCCN(CCCC)C(=O)CN(C)S(=O)(=O)c1ccc2c(c1)n(C)c(=O)c(=O)n2C | inconclusive: 14.1 µM [inhibitor, partial curve, poor fit] |
| CCOC(=O)Cc1ccc(NS(=O)(=O)c2ccc(SC)cc2)cc1 | inconclusive: 39.8 µM [inhibitor, single point] |
| CC(=O)Oc1ccc2oc(=O)c3c(c2c1)CCCN3C(=O)CN1CCOCC1 | inconclusive: 39.8 µM [inhibitor, single point] |
| CCc1nc(Nc2ccccc2)c2oc3ccccc3c2n1 | inconclusive: 28.2 µM [inhibitor, single point] |
| O=C1Nc2ccc3sc4ccccc4c3c2C1=O | inactive |
| CCOC(=O)c1sc(C)c2c1NC(C)(c1cccc3ccccc13)NC2=O (configuration not stated) | inconclusive: 35.5 µM [inhibitor, partial curve] |
| O=C(O)c1cc(-c2ccccc2)c(N2CCOCC2)s1 | inactive |
| COC(=O)c1cccc(NC(=O)c2cc(OC)c(OC)c(OC)c2Br)c1 | inactive |
| COc1ccc(CC(=O)NCc2ccco2)cc1OC | inactive |
| O=C(CCC(=O)N/N=C/c1ccc(Br)s1)NCc1ccccc1 | inactive |
| Cc1nc2ccc(NC(=S)NCCCO)cc2nc1C | inconclusive: 35.5 µM [inhibitor, partial curve] |
| CCCOC(=O)c1ccc(Cl)c(NC(=O)c2cccnc2)c1 | inactive |
| CCOc1cccc(C(=O)Nc2ccc(N3CCN(S(C)(=O)=O)CC3)cc2)c1 | inactive |
| CC(C)(C)c1ccccc1NC(=O)NC1CCN(Cc2c(F)cccc2Cl)CC1 | inconclusive: 39.8 µM [inhibitor, single point] |
| COc1ccc2c(c1)c(C(=O)N1CCN(C)CC1)c(C)n2-c1ccccc1 | inconclusive: 15.8 µM [inhibitor, partial curve] |
| COc1cc(OC)c(NC(=O)c2ccccc2F)cc1Cl | inconclusive: 35.5 µM [inhibitor, single point] |
| Cc1nc2c(c(C)nn2-c2ccccc2)c(C)c1Cl | inconclusive: 22.4 µM [inhibitor, partial curve] |
| Cc1ccc2cc(CN(Cc3ccco3)C(=O)NC3CCCCC3)c(=O)[nH]c2c1C | inconclusive: 28.2 µM [inhibitor, single point] |
| CC(C)(C)[Si](C)(C)c1c2c(nc3ccc(OCc4ccccc4)cc13)-c1cccc(=O)n1C2 | inconclusive: 7.08 µM [inhibitor, partial curve] |
| Cc1cc(C)n2c(-c3ccccc3Cl)nnc2n1 | inconclusive: 25.1 µM [inhibitor, partial curve] |
| COc1ccc([C@H]2[C@H](C(=O)C(C)(C)C)N3N=Cc4ccccc4C3[C@]23N=C(c2ccccc2)OC3=O)cc1 (some centres not stated) | inconclusive: 28.2 µM [inhibitor, single point] |
| Cc1ccc2cc3cc(C(=O)NCc4ccc5c(c4)OCO5)oc3nc2c1 | inconclusive: 8.91 µM [inhibitor, single point] |
| O=C(Cn1cc([N+](=O)[O-])cn1)N1CCc2ccccc2C1 | inactive |
| Clc1ccc2nncn2n1 | inconclusive: 39.8 µM [inhibitor, single point] |

| SMILES | Potency |
| --- | --- |
| COC(=O)c1c(NS(C)(=O)=O)sc2c1CCCC2 | inactive |
| COc1cccc(Cn2cccc(NC(=O)Nc3ccc(C#N)cc3)c2=O)c1 | inconclusive: 22.4 µM [inhibitor, partial curve] |
| O=C(C1=C[C@H](c2ccc3c(c2)OCO3)C[C@H](OCCCCO)O1)N1CCN(Cc2ccccc2)CC1 | inconclusive: 22.4 µM [inhibitor, single point] |
| COc1ccc(/C=N/NC(=O)c2ccccc2O)cc1Cn1nnc2ccccc21 | inconclusive: 35.5 µM [inhibitor, partial curve] |
| O=C(NCc1nc2ccccc2[nH]1)C1=C[C@H](c2ccc3c(c2)OCO3)C[C@H](OCc2ccc(CO)cc2)O1 | inconclusive: 39.8 µM [inhibitor, single point] |
| Cc1c(CCC(C)C)c(-n2ccnc2C)n2c(nc3ccccc32)c1C#N | inconclusive: 35.5 µM [inhibitor, single point] |
| O=C(COC(=O)c1ccc(Cl)cc1O)NCCN1C(=O)CSC1=O | inconclusive: 1 µM [inhibitor, single point] |
| N#C/C(=C(/O)c1cc2ccccc2o1)c1nc2ccccc2s1 | inactive |
| CCOc1ccc(NC(=O)c2nnn(CC(=O)Nc3ccccc3OC)c2N)cc1 | inconclusive: 35.5 µM [inhibitor, single point] |
| CSc1ccc(Cl)c(C(=O)OCC(=O)NCC(C)C)c1 | inconclusive: 28.2 µM [inhibitor, single point] |
| COc1ccc(Br)c2oc(S)cc(=O)c12 | inactive |
| CSC1=C(C#N)C(c2ccc(Cl)cc2)C2=C(CC(C)(C)CC2=O)N1 (configuration not stated) | inconclusive: 39.8 µM [inhibitor, single point] |
| Cc1nnc(SCC(=O)OC2CC(C)CCC2C(C)C)[nH]c1=O (configuration not stated) | inactive |
| COc1ccc(C(=O)NNC(=S)NC(=O)C(C)(C)C)cc1 | inconclusive: 39.8 µM [inhibitor, partial curve, poor fit] |
| O=C(c1coc(=O)c(Br)c1)N1CCOCC1 | inconclusive: 28.2 µM [inhibitor, single point] |
| CCOC(=O)C1CCN(C/C=C/c2ccccc2OC)CC1 | inconclusive: 39.8 µM [inhibitor, single point] |
| CCN(CC)S(=O)(=O)c1cccc(C(=O)N/N=C/c2ccc(O)c(O)c2O)c1 | active: 7.94 µM |
| Cn1c(-c2ccccc2)c(/C=N/NC(=O)c2ccc(O)cc2)c2ccccc21 | inconclusive: 35.5 µM [inhibitor, partial curve] |
| S=c1nc[nH]c2nc[nH]c12 | active: 20 µM |
| Cc1nc(N2CCCCC2)c2c(C)c(C(=O)Nc3ccccc3C(F)(F)F)sc2n1 | inconclusive: 35.5 µM [inhibitor, partial curve] |
| CCOC(=O)c1[nH]c2ccc(C)cc2c1NC(=O)CN1CCCCC1 | inconclusive: 31.6 µM [inhibitor, partial curve] |
| S=c1[nH]nc(C2CCCCC2)n1Cc1ccccc1 | inconclusive: 22.4 µM [inhibitor, partial curve, poor fit] |
| CN(Cc1ccco1)c1nc(-c2cccc(C#N)c2)nc2ccccc12 | inconclusive: 39.8 µM [inhibitor, single point] |
| CN1CCSc2ccc(C(=O)Nc3cccc(F)c3)cc21 | inconclusive: 35.5 µM [inhibitor, partial curve] |

Reference: PubChem BioAssay AID2147 (National Center for Advancing Translational Sciences (NCATS), 2009)
